From the RNAGym collection of RNA variant scans (doi:10.1073/pnas.2313332121)
This sample is rich in variants without activity.

B1: TPR 5TU (parent)
chain: GGAUCUUCUCGAUCUAACAAAAAAGACAAAUCUGCCACAAAGCUUGAGAGCAUCUUCGGAUGCAGAGGCGGCAGCCUUCGGUGGCGCGAUAGCGCCAACGUUCUCAACUAUGACACGCAAAACGCGUGCUCCGUUGAAUGGAGUUUAUCAUG

Variants of: B1
Test: polymerase ribozyme fitness, log enrichment relative to wild type (log ratio); higher = more active; in vitro selection for triplet polymerase activity
Outline: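 Mutant libraries for each subunit of a heterodimeric triplet polymerase ribozyme were made by PCR and then transcribed. Each library underwent one round of in vitro selection in triplicate: annealing with a biotinylated primer, the partner subunit and triplets, frozen incubation at −7 °C, gel excision of extended constructs, streptavidin-bead capture and RT-PCR. Input and output libraries were Illumina-sequenced, and only genotypes with ≥10 input reads and ≥1 read per output were kept. Fitness is the logarithm, base 2, of genotype enrichment over wild-type enrichment, computed from inverse-variance-weighted replicate averages.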
In the case of A12C U44G A64G C85U, the “polymerase ribozyme fitness (log ratio)” value is reported as at most -4.2. With A12G C93G the “polymerase ribozyme fitness (log ratio)” value was -2.99. In the case of A12G G83A G133C G143A U146G, the “polymerase ribozyme fitness (log ratio)” value is reported as -3.34. For A12G A28U G48C G84C, the “polymerase ribozyme fitness (log ratio)” value was at most -4.2. With A12G C14U C38U G42C A73U A91U A119C U134A U135C A137U the “polymerase ribozyme fitness (log ratio)” value was at most -4.2. For A12C A40G C87U U101G, the “polymerase ribozyme fitness (log ratio)” value was at most -4.2. For A12G C35A G65A C96A U111G, the “polymerase ribozyme fitness (log ratio)” value was at most -4.2. With A12G C79U C93G U130G the “polymerase ribozyme fitness (log ratio)” value was at most -4.2. In the case of A12C U13G A40G U82G G94A C118G, the “polymerase ribozyme fitness (log ratio)” value is reported as at most -4.2. In the case of A12G C32G C35G U55A C85U, the “polymerase ribozyme fitness (log ratio)” value is reported as at most -4.2. In the case of A12G C63U U134A, the “polymerase ribozyme fitness (log ratio)” value is reported as -2.26. For A12U A24U C43A G46A U53A U55A C57U A60G G80U C93G, the “polymerase ribozyme fitness (log ratio)” value was at most -4.2. For A12C A40C U55A A107G A142G, the “polymerase ribozyme fitness (log ratio)” value was at most -4.2. With A12U A23U A40U C87A G88C G117U the “polymerase ribozyme fitness (log ratio)” value was at most -4.2. With U13A A19G C63U G83C A97U G141C the “polymerase ribozyme fitness (log ratio)” value was at most -4.2. With A12C C57U G68C C85A C87U C96A the “polymerase ribozyme fitness (log ratio)” value was at most -4.2. With A12U U53A C57U C93U U111G G112C G136A U146A the “polymerase ribozyme fitness (log ratio)” value was at most -4.2. In the case of A12U C76G G80A C87A A119U, the “polymerase ribozyme fitness (log ratio)” value is reported as at most -4.2. In the case of A12G A19U C75U A89U C93A U102A, the “polymerase ribozyme fitness (log ratio)” value is reported as at most -4.2. In the case of A12G U44G C85G U90A, the “polymerase ribozyme fitness (log ratio)” value is reported as at most -4.2. With A12C C51A U53A G70C U90G G141U the “polymerase ribozyme fitness (log ratio)” value was at most -4.2. With A12U C27U A29U G84U G92A the “polymerase ribozyme fitness (log ratio)” value was at most -4.2. For A12G A29C A40G A64C G68A C79A C87A U101A C103U U130G, the “polymerase ribozyme fitness (log ratio)” value was at most -4.2. With A12U C54U G86U G143C the “polymerase ribozyme fitness (log ratio)” value was at most -4.2. With A12U C51G G88C C108G G117C the “polymerase ribozyme fitness (log ratio)” value was at most -4.2. In the case of A12C A52C C87U A89C, the “polymerase ribozyme fitness (log ratio)” value is reported as -3.43. For A12U U15G C38U C69A G81U U82C G84A A150U, the “polymerase ribozyme fitness (log ratio)” value was at most -4.2. For A12G U31A A52G C87G G94A U151G, the “polymerase ribozyme fitness (log ratio)” value was at most -4.2. In the case of A12C G71C C93U A113G, the “polymerase ribozyme fitness (log ratio)” value is reported as at most -4.2. With A12U C38U A41C C87U G141A U144A the “polymerase ribozyme fitness (log ratio)” value was at most -4.2. For A12G A52U U104G C125U, the “polymerase ribozyme fitness (log ratio)” value was at most -4.2. For A12U A21G C43U G50A U77C C149A, the “polymerase ribozyme fitness (log ratio)” value was at most -4.2. For A12G G50U G62C A115U G136U, the “polymerase ribozyme fitness (log ratio)” value was at most -4.2. For A12U A37G C87A G92U C96G C99A U104C A150G, the “polymerase ribozyme fitness (log ratio)” value was at most -4.2. In the case of A12G A16C A49C U55A C99U U102C U134C A150G, the “polymerase ribozyme fitness (log ratio)” value is reported as at most -4.2. In the case of A12U C85U G136U, the “polymerase ribozyme fitness (log ratio)” value is reported as -3.16. For A12U C35A G50U G92A G128C, the “polymerase ribozyme fitness (log ratio)” value was at most -4.2. In the case of A12C G62A C76G G100A U139G, the “polymerase ribozyme fitness (log ratio)” value is reported as at most -4.2. In the case of A12U C18U A41G G62A A64G U102A A107C C108U G152U, the “polymerase ribozyme fitness (log ratio)” value is reported as at most -4.2. For A12G A37C A49U C85U A98G G133C, the “polymerase ribozyme fitness (log ratio)” value was at most -4.2. With A12G A37C C87U G92A A119U G136A the “polymerase ribozyme fitness (log ratio)” value was -0.359. For A12C A49U U82C C87A, the “polymerase ribozyme fitness (log ratio)” value was at most -4.2. In the case of A12G A91U C105G A106U, the “polymerase ribozyme fitness (log ratio)” value is reported as -4.11. For A12C G46A C51U A64G C79G C93A A113C G124U, the “polymerase ribozyme fitness (log ratio)” value was at most -4.2. For A12G C27A G94U C125G U146G, the “polymerase ribozyme fitness (log ratio)” value was at most -4.2. With A12U A23C C103A U104G A115G C125G G133U the “polymerase ribozyme fitness (log ratio)” value was at most -4.2. With A12C G68C C85U C108U A115C the “polymerase ribozyme fitness (log ratio)” value was at most -4.2. In the case of U13A A20C A28U A64G A122G G141A, the “polymerase ribozyme fitness (log ratio)” value is reported as at most -4.2. In the case of A12C C14U G59A G83A A89U G100A G117A U145G, the “polymerase ribozyme fitness (log ratio)” value is reported as at most -4.2. For A12G G34U A39U C85G C116A, the “polymerase ribozyme fitness (log ratio)” value was at most -4.2. With A12G G25U G50A C54A G71U G80A G84U U101G the “polymerase ribozyme fitness (log ratio)” value was at most -4.2. In the case of A12G C18U A19C C36A G59C C69U U78G U134C G140U A147C, the “polymerase ribozyme fitness (log ratio)” value is reported as at most -4.2. With A12U A16U A47C U55G C76U C93G C99U C125A A142C the “polymerase ribozyme fitness (log ratio)” value was at most -4.2. With A12U A19C C35U A52G C85A G133U U145C the “polymerase ribozyme fitness (log ratio)” value was at most -4.2. With A12U A16U U45A G59A A66U C96G the “polymerase ribozyme fitness (log ratio)” value was at most -4.2. In the case of A12G A26U U31G A91G G133U, the “polymerase ribozyme fitness (log ratio)” value is reported as at most -4.2. With A12G C38G A52C G59U C85A C95U C116G the “polymerase ribozyme fitness (log ratio)” value was at most -4.2. In the case of A12C C57U A66G C96G, the “polymerase ribozyme fitness (log ratio)” value is reported as at most -4.2. For A12G G25C G50C A52C U53A C54U U55C C57U C72A G140A G141C U145C, the “polymerase ribozyme fitness (log ratio)” value was at most -4.2. With A12C G58A G88C C118G G136U the “polymerase ribozyme fitness (log ratio)” value was at most -4.2. For A12G U55A C76A C93A A120G, the “polymerase ribozyme fitness (log ratio)” value was -3.73. With A12U A26U G71A G88U A110C the “polymerase ribozyme fitness (log ratio)” value was at most -4.2. For A12G A89C C96G, the “polymerase ribozyme fitness (log ratio)” value was -1.66. With A12G A23C G59C C75G A110U the “polymerase ribozyme fitness (log ratio)” value was at most -4.2. In the case of A12G G84A, the “polymerase ribozyme fitness (log ratio)” value is reported as -0.68. For A12G A26U C32G U82G G84A A91C G152U, the “polymerase ribozyme fitness (log ratio)” value was at most -4.2. For A12U A20G A21C U31A C35G G86U A91G A119U G128C, the “polymerase ribozyme fitness (log ratio)” value was -3.91. In the case of A12C U31A A47G C79A, the “polymerase ribozyme fitness (log ratio)” value is reported as at most -4.2. In the case of A12C C54U A91U, the “polymerase ribozyme fitness (log ratio)” value is reported as at most -4.2. For A12G C93G A98G G141C, the “polymerase ribozyme fitness (log ratio)” value was -2.52. In the case of A12G G70C A113C U144C A147C, the “polymerase ribozyme fitness (log ratio)” value is reported as at most -4.2. With A12C A39G A41U A47C C85U U146G the “polymerase ribozyme fitness (log ratio)” value was at most -4.2. In the case of A12G A28C G71A G94U C95A A110C G124U C132G, the “polymerase ribozyme fitness (log ratio)” value is reported as at most -4.2. For A12U A28U A37U C75A C87U, the “polymerase ribozyme fitness (log ratio)” value was at most -4.2. For A12G C18U G84A U102C C105A A107G, the “polymerase ribozyme fitness (log ratio)” value was at most -4.2. In the case of A12G C35U A60U G124C A147C, the “polymerase ribozyme fitness (log ratio)” value is reported as at most -4.2. With A12G A30G C32U C85A A142U the “polymerase ribozyme fitness (log ratio)” value was at most -4.2. With A12G C87A the “polymerase ribozyme fitness (log ratio)” value was at most -4.2. In the case of A12G A16U G50A G83C C85A U90C, the “polymerase ribozyme fitness (log ratio)” value is reported as at most -4.2. In the case of A12U U15G A39U G86U U102G C116U, the “polymerase ribozyme fitness (log ratio)” value is reported as at most -4.2. With A12U C85U C87G C118U C132G U144G the “polymerase ribozyme fitness (log ratio)” value was at most -4.2. For A12U A39U G70A G100C A120C, the “polymerase ribozyme fitness (log ratio)” value was at most -4.2. In the case of A12C U78C C85A C114A G133A G136U, the “polymerase ribozyme fitness (log ratio)” value is reported as at most -4.2.
